From PMC12700831, “Molecular basis for the activation of outer dynein arms in cilia” (Nature Structural & Molecular Biology, 2025) come the findings set out here.

In the test the target is T1, recombinant human C20ORF194/DNAAF9 (human, UniProt Q5TEA3 1-1177).
T1 construct: human C20ORF194/DNAAF9, codon-optimized synthetic gene in pACEBac1; also called human Shulin; source: Sf9, purified (Strep-Trap, Superdex 200 gel filtration)
Kind of test: SEC; Shulin or DNAAF9 with fourfold molar excess of Arl3 or ARL3 variants, 30 min on ice, 1 mM GDP or 1 mM GTP, Superdex 200 increase 3.2/300; coelution by SDS–PAGE. Conditions: both partners purified. (In general: In gel filtration, larger molecules generally elute earlier.)

T1 sequence (Q5TEA3 whole entry): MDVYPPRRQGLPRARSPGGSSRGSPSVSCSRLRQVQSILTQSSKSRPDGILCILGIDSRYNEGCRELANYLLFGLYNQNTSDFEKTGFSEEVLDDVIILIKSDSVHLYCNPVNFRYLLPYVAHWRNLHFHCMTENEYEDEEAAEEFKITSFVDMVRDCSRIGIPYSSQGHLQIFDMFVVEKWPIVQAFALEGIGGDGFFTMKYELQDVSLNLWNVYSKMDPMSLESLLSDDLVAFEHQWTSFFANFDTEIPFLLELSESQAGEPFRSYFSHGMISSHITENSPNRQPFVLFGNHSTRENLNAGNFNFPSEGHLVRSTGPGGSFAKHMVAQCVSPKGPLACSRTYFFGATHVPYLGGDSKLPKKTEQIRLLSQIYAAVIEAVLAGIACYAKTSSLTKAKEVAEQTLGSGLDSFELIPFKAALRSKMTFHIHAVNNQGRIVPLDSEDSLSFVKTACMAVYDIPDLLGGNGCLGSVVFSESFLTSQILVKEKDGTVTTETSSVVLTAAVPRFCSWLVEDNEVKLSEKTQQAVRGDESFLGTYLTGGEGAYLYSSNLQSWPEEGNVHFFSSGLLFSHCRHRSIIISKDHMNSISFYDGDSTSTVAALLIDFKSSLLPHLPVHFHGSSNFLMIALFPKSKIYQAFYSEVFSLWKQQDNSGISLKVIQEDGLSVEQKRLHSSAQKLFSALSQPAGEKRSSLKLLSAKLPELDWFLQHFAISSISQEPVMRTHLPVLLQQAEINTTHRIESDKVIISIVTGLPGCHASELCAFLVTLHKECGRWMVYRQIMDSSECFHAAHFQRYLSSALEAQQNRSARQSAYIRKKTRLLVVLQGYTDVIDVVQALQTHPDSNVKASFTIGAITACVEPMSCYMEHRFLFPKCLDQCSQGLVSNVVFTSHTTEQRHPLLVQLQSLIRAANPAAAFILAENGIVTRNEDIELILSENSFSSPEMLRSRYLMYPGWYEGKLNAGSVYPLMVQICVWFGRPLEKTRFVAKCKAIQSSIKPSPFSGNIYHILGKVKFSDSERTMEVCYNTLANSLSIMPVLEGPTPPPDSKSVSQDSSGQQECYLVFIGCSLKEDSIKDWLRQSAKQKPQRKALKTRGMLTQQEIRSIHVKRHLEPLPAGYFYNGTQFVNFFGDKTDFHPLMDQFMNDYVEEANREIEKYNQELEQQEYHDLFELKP

B1: human ARL[…]L (His tag) (natural protein)
chain: not shown
notes: human ARL3, GTP-locked variant; also called GTP-locked ARL3; QL variant; source: bacteria (pET22b(+), periplasmic expression), purified (Ni-NTA, Superdex 200 gel filtration)
On to B1, for which the binding result is “binds”.
